Assay results published in patent US10022357B2, “Amyloid precursor protein MRNA blockers for treating Down syndrome and Alzheimer's disease” (THE GENERAL HOSPITAL CORPORATION, priority 2013, dated 2018).

Tests used:
SH-SY5Y cells [1] = experiment: Calcein assay for iron uptake
[2] = tested on: total Aβ levels, SH-SY5Y cells; experiment: ELISA of total Aβ in conditioned medium of SH-SY5Y cells; type: cell-based, human
Aβ-42, SH-SY5Y cells = experiment: Chemiluminescent BetaMark x-42 ELISA of Aβ-42 in conditioned medium of SH-SY5Y cells; type: cell-based, human; conditions: 10 μM, 72 hour treatment
Description: Aβ-42 peptide is the critical APP derived peptide to trigger the aggregation of amyloid in both AD and DS and is critically linked to tau induced neurotoxicity. […] In this representative experiment, a chemiluminescent BetaMark x-42 ELISA assay for Aβ-42 measurement was employed (Covance, inc). The assays were carried out according to the manufacture's conditions such that the standard curve was linear and the measured points were within the ‘standards’ range.

APP = experiment: Western blot of APP levels in SH-SY5Y cells
SH-SY5Y cells [3] = experiment: MTT/MTS assay for cell viability; type: cell-based, human; conditions: for Toxicity (MTT): SH-SY5Y cells
Description: Cell viability was determined using MTT (thiazolyl blue tetrazolium) viability assays. Cells were grown in 96 well plates and treated as indicated above. […] The media was aspirated from the cells and 150 μL of solvent (0.1% Nondet P-40, 4 mM HCl in isopropanol) was added to each well and the plate shaken for 15 minutes.

SH-SY5Y cells [4] = conditions: concentrations up to 10 μM
Description: After reaching 80% confluence, a SH-SY5Y cells were 1:3 split onto two 12-well plates. After allowing the cells to settle for 24 hours, the medium was switched to a 1% FBS DMEM (Dulbecco's modified essential medium supplemented with 1% FBS and penicillin/streptomycin). Aβ Assays: Total Aβ amyloid levels were assessed as previously described (8) and AP-42 levels were measured by use of ELISA according to manufacturer's instructions (Covance Chemiluminescent BetaMark x-42 ELISA). LDH assay: The 1% FBS medium was recommended by the LDH Cytotoxicity Kit (Cayman Chemical, Ann Harbor, Mich.) to reduce interference as FBS also contains LDH. Cells were exposed to 10-fold increases in concentrations of JTR-009 reconstituted in IX PBS (0.1 nM-100 μM) compared to PBS as a control for 48 hours. Thus, eight wells on each 12-well were treated for 48-hour after which time 100 μL of supernatant was extracted from each of the treated wells and transferred to a 96-well plate. A LDH standard from the kit was also added to the plate.

[5] = tested on: β-actin and α-synuclein (SNCA); experiment: Western blot of β-actin and α-synuclein levels in SH-SY5Y cells (specificity); conditions: 48 hours
APP and amyloid-beta = experiment: Suppression of APP and Aβ levels in SH-SY5Y cells and primary neurons (Table 2 summary); type: cell-based; conditions: read-out: APP and amyloid-beta Inhibition (IC50)

O=C(O)CN(CCN(CC(=O)O)CC(=O)O)CCN(CC(=O)O)CC(=O)O [DTPA, reference compound]
inhibition of calcein staining (normalized iron uptake) (SH-SY5Y cells [1]; JTR-009 10 μM, DTPA blocking control): 100±8%

Cc1ccc2[nH]c(-c3ccc(N)cc3)nc2c1 [JTR-009, 4-(5-methyl-1H-benzimidazol-2yl) aniline]
fold inhibition of total Aβ peptide levels ([2]; 1 μM, 48 hours, SH-SY5Y conditioned medium, N=5): 3 fold
lowest concentration that inhibited secreted Aβ ([2]; SH-SY5Y, 72-hour treatment): 10 nM
reduction of Aβ-42 secretion (Aβ-42, SH-SY5Y cells): more than two fold
lowest dose that limited APP production (APP; 48 hours): 100 nM
concentrations that selectively reduced neural APP production (APP; Western blotting): picomolar concentrations
Toxicity (MTT) (SH-SY5Y cells [3]): 100 µM
concentrations at which cell toxicity was displayed (SH-SY5Y cells [3]; SH-SY5Y cells and primary neurons): > 30 µM
cellular viability compared to controls (SH-SY5Y cells [3]; concentrations as high as 100 μM): 80%
cell death by LDH cytotoxicity assay (SH-SY5Y cells [4]): without causing any significant cell death
effect on β-actin and α-synuclein levels [5]: maintaining
IC50 (APP and amyloid-beta): 0.1 µM
inhibition at 10 µM (SH-SY5Y cells [1]; Homo sapiens, SH-SY5Y, read-out: inhibition of calcein staining (normalized iron uptake)): -1 ± 13%

Cc1ccc(C(=O)Cn2c3c(sc2=N)CCCC3)cc1 [PFTα, pifithrin-alpha, reference compound]
inhibition of neural APP, potency compared with JTR-009 (APP; 48 hours): same potency as JTR-009
effect on β-actin and α-synuclein levels [5]: co-reduced αsyn levels

CN1CC[C@]2(C)c3cc(OC(=O)Nc4ccccc4)ccc3N(C)[C@H]12 [posiphen, reference compound]
Toxicity (MTT) (SH-SY5Y cells [3]): 100 µM
effect on β-actin and α-synuclein levels [5]: limited expression of APP but also that of (β-actin and α-synuclein
